The structures appear in SMILES notation. The whole screen tested about 150,000 compounds, of which about 540 (0.36%) showed an effect of 50% or more. Some of the results follow.

In general, % Inhibition refers to the drop in the measured response relative to a control, in per cent.

For the experiment, the system named is Plasmodium falciparum. Put plainly: Primary screen in NF54 nanoGlo assay, in single point, at 2uM, 72h; a lower Z score goes with more inhibition. The experiment is classed as functional, Erythrocyte. The following applies: timepoint 72 hour.
As to `COc1ccccc1[C@H]1CCN(S(=O)(=O)c2cc(Cl)ccc2C)C1`, the “% Inhibition” value is reported as -6% and the Z score came out at 0.64.
Turning to `O=S(=O)(CC1CC(F)(F)C1)NC1CCC1`, the “% Inhibition” value was -6% and the Z score was found to be 0.91.
As to `O=C(O)C1C2C=CC(C2=C(c2ccccc2)c2ccccc2)C1C(=O)Nc1ccccn1` (stereo unspecified), the “% Inhibition” value was -16% and the Z score was determined as 1.91.
For `CN(C)[C@H]1[C@@H]2CC[C@H]1CN(C(=O)c1cccc(Oc3ccccc3)c1)C2` the same measures were -5% and 1.15.
For `CC(C)Oc1cc(N2N=CCCN(C)C2=O)c(F)cc1Cl` the same measures were -47% and 5.48.
The like results for `CS(=O)(=O)Cc1ccc(-c2cccc3ccnn23)nc1` were, in that order, 5% and -1.01.
Take `CN(C)[C@H]1[C@@H]2CC[C@H]1CN(Cc1cnc(NCc3ccccc3)nc1)C2`: the “% Inhibition” value is 11% and the Z score is -1.47.
For `CN1CN(Cc2nsc(N(C)C)n2)CC1=O` the same measures were 2% and -0.3.
For `CCOCc1nc(CCc2c(C)n[nH]c2C)n(C)n1` the same measures were -9% and 1.54.
For `Cc1cnc([C@H]2CCCN(C(=O)c3noc4c3CCCC4)C2)s1` the same measures were -9% and 1.41.
Take `C=C[C@@H]1CCCCN1C(=O)CC(F)(F)F`: the “% Inhibition” value is listed as -17% and the Z score came out at 1.67.
Take `Cc1ccc(C(=O)NC[C@@H](CO)CC2CCCCC2)cn1`: the “% Inhibition” value is -17% and the Z score is listed as 2.19.
For `O=C(c1nc2ccc(Cl)cn2c1CN1CCC[C@H]1CO)N1CCCCCCC1` the same measures were -2% and 0.24.
With `COCCN(Cc1nccs1)C(=O)NC[C@H](C)N1CCN(C)CC1`, the “% Inhibition” value is -1% and the Z score turned out to be 0.25.
For the molecule `COc1ccc(-c2cc3ncc(C(=O)c4cc(Cl)ccc4O)cn3n2)cc1`, the “% Inhibition” value is 46% and the Z score was -5.26.
Take `CN(C)c1ccc(NC(=O)C2CN(S(C)(=O)=O)C2)cc1`: the “% Inhibition” value was -21% and the Z score was 3.3.
For `CCCCOC(=O)N1CCC2(CCC(=O)N(CCc3c[nH]cn3)C2)CC1` the same measures were -7% and 0.95.
The like results for `COC[C@H](C)NC(=O)Nc1ccc(Cl)c(C#N)c1` were, in that order, -11% and 0.97.
For `COC[C@H]1CCCN1C[C@@H]1OC[C@H](NC(=O)CC(C)(C)C)[C@H]1O` the same measures were 33% and -3.68.
Consider `O=C(NCCOCC(F)(F)F)c1nc(-c2ccccc2)ns1`, for which the “% Inhibition” value is 16% and the Z score is listed as -2.12.
The like results for `COC(=O)N1CCc2ccc(Br)cc2[C@@H]1C(=O)Nc1cccc(C(C)=O)c1` were, in that order, -5% and 0.81.
Take `Cc1nc(CC(C)C)c(NC(=O)C2CC(C)(O)C2)s1` (stereo unspecified): the “% Inhibition” value is given as -8% and the Z score came to 1.6.
As for `COc1ccc(-c2oncc2C(=O)NC[C@H]2CCCN3CCCC[C@@H]23)cc1`, the “% Inhibition” value was 8% and the Z score is -1.11.
For `O=C(c1ccc(S(=O)(=O)N2CCCCC2)cc1)N1CCC[C@H]1c1nc2ccccc2s1` the same measures were 5% and -0.65.
For `C[C@H](OC(=O)Cn1cnc2c1c(=O)n(C)c(=O)n2C)C(=O)Nc1ccc(F)cc1` the same measures were -10% and 0.99.
`O=C(Cn1ncc2ccc(Cl)cc21)NC1CCCCC1`: the “% Inhibition” value is recorded as -10% and the Z score is 1.43.
The like results for `O=C1C2C(C(=O)N1Cc1ccc(F)cc1)C1C=CC2C12CC2` (stereo unspecified) were, in that order, -5% and 0.65.
For `CC(=O)Nc1[nH]c(-c2ccccc2)cc1C(C)=O` the same measures were -11% and 2.07.
For `C[C@H]1CCCN(Cc2cccc(C(=O)Nc3cnn4c3NCCC4)c2)C1` the same measures were -16% and 2.81.
Turning to `C#Cc1cccc(NCc2cnc3cnccn23)c1`, the “% Inhibition” value is reported as -15% and the Z score stood at 2.43.
The like results for `Cc1csc2nc(Cn3cc(S(=O)(=O)N(C)C)cn3)cc(=O)n12` were, in that order, -4% and 0.58.
The like results for `CCn1cnnc1[C@@H]1CCCCN1S(=O)(=O)c1cccc(OC)c1` were, in that order, -17% and 1.95.
For `Cc1ccc(NC(=O)c2coc(NC(=O)c3ccsc3)n2)cc1F` the same measures were -1% and 0.09.
In the case of `COCC(=O)Nc1ccn2nccc2c1`, the “% Inhibition” value is -11% and the Z score was determined as 1.75.
For `O=C(CC1CCCCC1)N1CC[C@H](Cc2nnc(C3CC3)[nH]2)C1`, the “% Inhibition” value is -3% and the Z score came out at 0.43.
The like results for `Cn1c(=O)c2ccn(CC(=O)NCc3ccccc3)c2n(C)c1=O` were, in that order, -16% and 1.61.
As for `O=C(Cc1ccc(F)cc1)N[C@@H](Cc1ccccc1)c1nnc(N2CCCCC2)o1`, the “% Inhibition” value was 9% and the Z score is listed as -0.98.
The like results for `CC(C)c1noc([C@H]2CC(=O)N(c3ccc4c(c3)CCC4)C2)n1` were, in that order, 0% and 0.05.
The like results for `CCn1nc(C)cc1-c1cn2c(n1)CCCC2` were, in that order, -12% and 1.71.
On to `CC(C)(C)c1ccc(C(=O)NCC2CCCC2NS(C)(=O)=O)s1` (stereo unspecified), for which the “% Inhibition” value was -4% and the Z score turned out to be 0.62.
For `OCC1CC(N[C@H](c2ccc(F)cc2)c2ccc(Cl)s2)C1` (stereo partly specified), the “% Inhibition” value is listed as -3% and the Z score was 0.46.
The like results for `C=CCN=C(NCCCS(=O)(=O)Cc1ccccc1)N1CCCC1` were, in that order, -9% and 1.22.
The like results for `Cn1cc(CCNC(=O)N(Cc2cccnc2)C2CCCCC2)cn1` were, in that order, 3% and -0.62.

The record behind these values is ChEMBL document CHEMBL4888484, “Replenishing the malaria drug discovery pipeline: Screening and hit evaluation of the MMV Hit Generation Library 1 (HGL1) against asexual blood stage Plasmodium falciparum ,using a nano luciferase reporter read-out” (2022).
